Source: the BET-seq Pho4 binding data (Le et al. 2018)
The other results are listed elsewhere or left out. Values were computed here from the reads of four pooled replicates and scatter widely.

What follows are sequences tested against T1, Pho4 (S. cerevisiae) (UniProt P07270) (assay: relative binding free energy (BET-seq); higher = weaker binding). Details: reference: library average.
T1 sequence: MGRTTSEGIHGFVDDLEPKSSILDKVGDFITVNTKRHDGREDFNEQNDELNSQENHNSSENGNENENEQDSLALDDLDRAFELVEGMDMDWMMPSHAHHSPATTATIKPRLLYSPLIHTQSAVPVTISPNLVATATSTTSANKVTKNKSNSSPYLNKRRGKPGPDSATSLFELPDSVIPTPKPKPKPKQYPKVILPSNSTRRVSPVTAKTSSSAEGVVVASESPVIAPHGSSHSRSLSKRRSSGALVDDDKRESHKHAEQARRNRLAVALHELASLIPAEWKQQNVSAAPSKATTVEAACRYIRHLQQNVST
In the case of TCAAGCACGTGTTATG, the “relative binding free energy” value is reported as -0.02 kcal/mol.
With GTAAGCACGTGTGGGA the “relative binding free energy” value was -0.1 kcal/mol.
In the case of AGATGCACGTGGTAAA, the “relative binding free energy” value is reported as -0.06 kcal/mol.
With GTGCGCACGTGGAAGG the “relative binding free energy” value was 0.09 kcal/mol.
In the case of AGTGTCACGTGTTTCG, the “relative binding free energy” value is reported as 0.18 kcal/mol.
For AATGGCACGTGAAGGC, the “relative binding free energy” value was 0.11 kcal/mol.
TGTATCACGTGCTAGG was tested, and the “relative binding free energy” value was 0.04 kcal/mol.
With GTTCACACGTGAGGGT the “relative binding free energy” value was 0.16 kcal/mol.
With GGTATCACGTGTCTGT the “relative binding free energy” value was 0.19 kcal/mol.
With CTGACCACGTGTTGGG the “relative binding free energy” value was 0.08 kcal/mol.
For CGAGGCACGTGAGATG, the “relative binding free energy” value was 0.2 kcal/mol.
In the case of GTGGACACGTGCGGGG, the “relative binding free energy” value is reported as 0.06 kcal/mol.
With TGAGGCACGTGGCGGC the “relative binding free energy” value was -0.13 kcal/mol.
For CTTGGCACGTGCGTGT, the “relative binding free energy” value was -0.28 kcal/mol.
TGGTGCACGTGACTTA was tested, and the “relative binding free energy” value was 0.07 kcal/mol.
For GGTTTCACGTGAGGTG, the “relative binding free energy” value was 0.48 kcal/mol.
For CATATCACGTGGTTTA, the “relative binding free energy” value was 0.06 kcal/mol.
With GTTGACACGTGATAGA the “relative binding free energy” value was 0.1 kcal/mol.
In the case of GTCTTCACGTGGGTAG, the “relative binding free energy” value is reported as 0.12 kcal/mol.
TGTGCCACGTGTGGAT was tested, and the “relative binding free energy” value was -0.03 kcal/mol.
For TTTTACACGTGGGGTG, the “relative binding free energy” value was -0.01 kcal/mol.
TAGTGCACGTGGAGGC was tested, and the “relative binding free energy” value was -0.02 kcal/mol.
In the case of TGGGGCACGTGCGGGG, the “relative binding free energy” value is reported as -0.18 kcal/mol.
With AGGGCCACGTGTGGAT the “relative binding free energy” value was -0.09 kcal/mol.
GTATACACGTGGATTT was tested, and the “relative binding free energy” value was 0.06 kcal/mol.
With GCTTTCACGTGGTGAG the “relative binding free energy” value was 0.18 kcal/mol.
In the case of GTGGGCACGTGGGAGT, the “relative binding free energy” value is reported as -0.18 kcal/mol.
For GTTTACACGTGCGCTG, the “relative binding free energy” value was 0.09 kcal/mol.
In the case of GGGAACACGTGAGTGA, the “relative binding free energy” value is reported as 0.27 kcal/mol.
TCTTACACGTGTTTAG was tested, and the “relative binding free energy” value was 0.05 kcal/mol.
For GATGGCACGTGGTACG, the “relative binding free energy” value was -0.15 kcal/mol.
TCAGGCACGTGGCGGT was tested, and the “relative binding free energy” value was -0.22 kcal/mol.
With AGTTCCACGTGGAAGG the “relative binding free energy” value was 0.23 kcal/mol.
For GGAGGCACGTGTAGCG, the “relative binding free energy” value was -0.18 kcal/mol.
TTGGGCACGTGAGAGC was tested, and the “relative binding free energy” value was 0.15 kcal/mol.
In the case of ATTTTCACGTGATTTC, the “relative binding free energy” value is reported as 0.47 kcal/mol.
With TGTTTCACGTGAGAGT the “relative binding free energy” value was 0.5 kcal/mol.
In the case of GTGTCCACGTGTTTTA, the “relative binding free energy” value is reported as -0.01 kcal/mol.
TCTACCACGTGTTTGT was tested, and the “relative binding free energy” value was 0.08 kcal/mol.
With TGGGACACGTGAGGTT the “relative binding free energy” value was 0.36 kcal/mol.
In the case of ATTTGCACGTGTCGGA, the “relative binding free energy” value is reported as 0.08 kcal/mol.
For GTAAGCACGTGTCCGG, the “relative binding free energy” value was -0.04 kcal/mol.
CTTTGCACGTGAAGTT was tested, and the “relative binding free energy” value was 0.18 kcal/mol.
With TTGTTCACGTGAGTTC the “relative binding free energy” value was 0.35 kcal/mol.
For AAATGCACGTGGTGTT, the “relative binding free energy” value was -0.16 kcal/mol.
With GAGCACACGTGTGTTT the “relative binding free energy” value was 0.37 kcal/mol.
ATTAGCACGTGGGCTA was tested, and the “relative binding free energy” value was -0.28 kcal/mol.
In the case of GAGGACACGTGTCGGG, the “relative binding free energy” value is reported as 0.21 kcal/mol.
With TATTACACGTGCGTAT the “relative binding free energy” value was 0.11 kcal/mol.
CGGACCACGTGTGGGG was tested, and the “relative binding free energy” value was -0.11 kcal/mol.
TATTTCACGTGGAAAG was tested, and the “relative binding free energy” value was 0.17 kcal/mol.
GCGTGCACGTGTCTGG was tested, and the “relative binding free energy” value was -0.03 kcal/mol.
With TATGTCACGTGTATGA the “relative binding free energy” value was 0.08 kcal/mol.
In the case of ATTGTCACGTGAGACT, the “relative binding free energy” value is reported as 0.34 kcal/mol.
GGGCCCACGTGGAGGG was tested, and the “relative binding free energy” value was -0.16 kcal/mol.
With GGCTGCACGTGTTATG the “relative binding free energy” value was 0.05 kcal/mol.
In the case of TAGATCACGTGGGTGG, the “relative binding free energy” value is reported as 0.01 kcal/mol.
TAGTACACGTGTGAGT was tested, and the “relative binding free energy” value was 0.12 kcal/mol.
